# Reference: paper PMC4336329 (PLoS ONE, 2015)
# Screen size: about 310,000 compounds; about 14,000 (4.5%) showed an effect of 50% or more. The effect is printed as a negative number. The list shows a part of the results.
# Molecular target: human ether-à-go-go-related gene (hERG) potassium channel (human, UniProt Q12809)
# Assay: primary screen, population patch clamp on CHO cells stably expressing hERG
# 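Also: peak tail current of the secondary pulse compared with the same well before compound.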
# Chain of human ether-à-go-go-related gene (hERG) potassium channel (Q12809 whole entry, looked up): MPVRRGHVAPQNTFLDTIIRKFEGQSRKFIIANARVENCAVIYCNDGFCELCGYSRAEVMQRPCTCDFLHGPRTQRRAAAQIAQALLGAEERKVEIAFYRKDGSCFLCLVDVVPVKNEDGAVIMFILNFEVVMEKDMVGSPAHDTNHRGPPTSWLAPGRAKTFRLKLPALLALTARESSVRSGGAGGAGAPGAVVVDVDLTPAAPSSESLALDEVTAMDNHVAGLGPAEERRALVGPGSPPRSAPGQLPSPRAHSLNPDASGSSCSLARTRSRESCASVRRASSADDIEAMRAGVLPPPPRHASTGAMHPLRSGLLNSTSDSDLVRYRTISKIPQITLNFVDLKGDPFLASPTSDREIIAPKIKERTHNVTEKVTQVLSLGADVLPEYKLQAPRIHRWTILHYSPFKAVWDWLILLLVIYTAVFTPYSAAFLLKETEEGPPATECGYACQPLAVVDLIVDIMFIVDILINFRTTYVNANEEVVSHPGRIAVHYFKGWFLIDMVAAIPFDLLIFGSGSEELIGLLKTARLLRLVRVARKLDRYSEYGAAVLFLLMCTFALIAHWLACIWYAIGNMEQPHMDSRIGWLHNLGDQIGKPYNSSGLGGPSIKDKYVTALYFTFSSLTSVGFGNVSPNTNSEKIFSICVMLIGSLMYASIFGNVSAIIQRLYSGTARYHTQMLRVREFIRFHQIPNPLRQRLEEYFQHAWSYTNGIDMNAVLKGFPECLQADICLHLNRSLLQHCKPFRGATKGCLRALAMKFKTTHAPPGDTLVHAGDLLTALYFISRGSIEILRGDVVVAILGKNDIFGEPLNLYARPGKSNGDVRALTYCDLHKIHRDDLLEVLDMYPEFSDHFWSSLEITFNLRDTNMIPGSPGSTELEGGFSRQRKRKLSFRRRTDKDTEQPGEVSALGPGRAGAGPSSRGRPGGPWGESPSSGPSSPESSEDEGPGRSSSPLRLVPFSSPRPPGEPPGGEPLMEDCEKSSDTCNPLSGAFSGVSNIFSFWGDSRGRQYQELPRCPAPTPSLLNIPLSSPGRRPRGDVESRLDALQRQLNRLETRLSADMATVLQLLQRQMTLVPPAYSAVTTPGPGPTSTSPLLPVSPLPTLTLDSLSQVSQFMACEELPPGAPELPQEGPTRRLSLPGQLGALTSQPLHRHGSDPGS
row,SMILES,"hERG current change (%, negative = inhibition) at 10uM"
1,Cc1cc(NO)c(C(C)C)cc1N=O,-2.87%
2,COc1ccc(NC(=O)NC23CC4(C)CC(C)(CC(C)(C4)C2)C3)cc1,-25.7%
3,CC1=C(C(=O)N(C)Cc2ccccc2)C2(CCC(C)CC2)OC1=O (stereo not drawn),-4.71%
4,CC(C)(C)OC(=O)CC[C@@H](C(=O)N1CCN(C(=O)OC(C)(C)C)CC1)n1cc(C(Cc2ccc(O)cc2)NC(=O)OC(C)(C)C)nn1 (stereo partly drawn),14.2%
5,COc1ccc(NC(=O)c2cc3c(=O)n(C)c4ccccc4c3n2C)cc1Cl,5.28%
6,COc1ccc(Cc2nnc(NC(C)=O)s2)cc1,7.23%
7,COCCn1c(SCC(=O)Nc2ccc(C(C)=O)cc2)nnc1-c1ccco1,-16.6%
8,CC(=O)NCc1ccc(S(=O)(=O)N2CCCN(C)CC2)cc1.Cl,17.1%
9,CC1SCC(=NOCc2ccccc2)CS1 (stereo not drawn),6.57%
10,CCCCC[C@H](O)/C=C/C1=C(CCCCCCC(=O)O)C(=O)CC1,17.9%
11,COc1cccc2c1cc1c(=O)n(CC(=O)NC3CCCCC3)nc(C)n12,-1.91%
12,COc1ccccc1NC(=O)C(C)OC(=O)Cn1cnc2c1c(=O)n(C)c(=O)n2C (stereo not drawn),7.78%
13,COCCC1CCCCN1C(=O)c1cc(COc2cccc(C(C)=O)c2)on1 (stereo not drawn),-4.93%
14,COc1ccc(O)c(CN2CCCC(N3CCc4ccccc4C3)C2)c1 (stereo not drawn),-46.6%
15,NC(=O)C1CCN(S(=O)(=O)c2cc3c4c(c2)CCN4C(=O)CC3)CC1,10.4%
16,CC(C)(C)NCC(=O)c1c[nH]c2ccccc12,-2.11%
17,Cc1ccc(S(=O)(=O)N(C)c2nc3ccccc3n3c(C(C)C)nnc23)cc1,-28.1%
18,CN(CC(=O)OCC(=O)NCc1ccccc1)S(=O)(=O)c1ccc(Cl)cc1,-6.5%
19,CC1=NNC(=O)C1CCC(=O)N/N=C(/C)c1ccc([N+](=O)[O-])cc1 (stereo not drawn),0.0577%
20,CCn1c2ccccc2c2cc(/C=N/NC(=O)c3ccncc3)ccc21,17.9%
21,COc1cccc(OC)c1C(=O)Nc1ccc(CN2CCOCC2)cc1,0.597%
22,CCN1CCN(c2nc(NCCO)c3ccccc3n2)CC1.Cl,-16.7%
23,O=C(Nc1ccccc1)c1cccc(=O)o1,21.2%

row,SMILES,"hERG current change (%, negative = inhibition) at 10uM"
1,O=C(NCCCn1ccnc1)c1ccc(-c2ccccc2)cc1,-21.6%
2,COc1ccc(/C=C2\N=C(C)OC2=O)cc1OC,16.5%
3,CC1Cc2ccccc2N1C(=O)c1ccc(N2CCCC2)c([N+](=O)[O-])c1 (stereo not drawn),-3.31%
4,COc1cc(C(=O)OCC(=O)Nc2c(C)n(C)n(-c3ccccc3)c2=O)c([N+](=O)[O-])cc1OC,7.15%
5,CCOC(=O)c1c(-c2ccccc2)csc1NC(=O)c1cc2ccccc2oc1=O,-10.4%
6,COc1ncccc1C(=O)N1CCC(n2nccc2NC(=O)CC(C)C)CC1,16.4%
7,COc1ccc(OC)c(NC(=O)N2C[C@H]3C[C@@H](C2)c2cccc(=O)n2C3)c1,-8.26%
8,O=C(CCc1ccccc1)NNC(=O)c1ccccc1Br,1.93%
9,CCOc1cc(S(=O)(=O)Nc2ccc(CC)cc2)ccc1Cl,-11.3%
10,COc1cc(NC(=O)Nc2cccc([N+](=O)[O-])c2)cc(OC)c1,1.42%
11,O=C(c1nc(-c2ccccc2)n(-c2ccccc2)n1)N1CCN(S(=O)(=O)c2ccccc2)CC1,-41.2%
12,CC(C)NC(=O)C1(c2ccccc2)CCOCC1,3.55%
13,Cc1cc(C)c(C)c(S(=O)(=O)Nc2ccc3cn[nH]c3c2)c1C,3.26%
14,O=C(CCC1CCCCC1)Nc1ccccc1O,3.23%
15,CCCn1nnc(NC(=O)c2ccc3ccccc3c2)n1,-1.9%
16,COc1ccc(C)cc1S(=O)(=O)Nc1ccc2c(c1)N(C(C)=O)CCC2,11%
17,Cc1ccc(C(C)(C)C)c(OCCCCN2CCCC2)c1,-19.9%
18,COc1ccccc1N1CC(C)(C)C(=O)N(C(=O)c2ccc(C)cc2)C1=S,2.13%
19,CN(Cc1ccccc1F)C(=O)C(Cc1ccccc1)NC(=O)c1ccccc1 (stereo not drawn),-5.82%
20,Fc1c(F)c(F)c(CSc2nc3ccccc3[nH]2)c(F)c1F,-0.406%
21,OCCCNC(=S)Nc1ccc(Nc2ccccc2)cc1,10.5%
22,COc1ccccc1NC(=O)COC(=O)CCS(=O)(=O)c1ccc(C)cc1,23.4%
